# Assay results from paper PMC6919601, “Identification of Plasmodium dipeptidyl aminopeptidase allosteric inhibitors by high throughput screening” (PLoS ONE, 2019).
# The campaign covered roughly 110,000 compounds. About 230 (0.21%) showed an effect of 50% or more. The list shows a part of the results.
# Target: DPAP1 (Plasmodium falciparum, UniProt Q8IIJ9)
# Assay: primary screen, percent inhibition; read by cleavage of a fluorogenic dipeptide substrate; higher = more effect of the substance
# Parameters: species or system P. falciparum D10 trophozoite lysates; single well
# 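Also: 30 min substrate incubation versus DMSO and 10 µM JCP410 controls.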
# Sequence of DPAP1 (Q8IIJ9 whole entry, looked up): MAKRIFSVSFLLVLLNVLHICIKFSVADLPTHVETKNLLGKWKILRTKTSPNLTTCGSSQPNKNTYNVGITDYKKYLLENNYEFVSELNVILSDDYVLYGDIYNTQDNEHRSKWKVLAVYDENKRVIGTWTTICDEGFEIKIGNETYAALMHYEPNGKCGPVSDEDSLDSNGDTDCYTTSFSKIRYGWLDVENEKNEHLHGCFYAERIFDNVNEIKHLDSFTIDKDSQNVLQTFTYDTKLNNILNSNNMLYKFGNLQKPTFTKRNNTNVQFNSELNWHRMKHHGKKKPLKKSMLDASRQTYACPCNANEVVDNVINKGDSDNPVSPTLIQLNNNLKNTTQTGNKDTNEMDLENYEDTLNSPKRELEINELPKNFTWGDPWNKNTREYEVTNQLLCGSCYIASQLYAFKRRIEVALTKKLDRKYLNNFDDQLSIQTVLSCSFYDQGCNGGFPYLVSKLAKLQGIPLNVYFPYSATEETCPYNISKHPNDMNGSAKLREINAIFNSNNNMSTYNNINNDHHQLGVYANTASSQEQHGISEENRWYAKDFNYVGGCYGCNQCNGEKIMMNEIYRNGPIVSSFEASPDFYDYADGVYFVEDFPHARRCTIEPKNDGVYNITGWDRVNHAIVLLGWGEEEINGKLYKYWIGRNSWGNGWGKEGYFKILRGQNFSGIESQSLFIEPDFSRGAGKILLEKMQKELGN
row,Structure (SMILES),% Inhibition @ 10 uM [%]
1,Cc1cc(=O)n2nc(N3CCC(C(=O)NC4CCC(C)CC4)CC3)sc2n1 (centres unmarked),1.38
2,O=C(COc1ccc(S(=O)(=O)NC2CCCC2)cc1)Nc1cc(C(F)(F)F)ccc1Cl,-2.32
3,COc1ccc(NC(=O)c2ccc(N(C)S(=O)(=O)c3ccccc3)cc2)cc1OC,-1.43
4,CCN(CC)C(=O)C1Sc2nnc(C)n2NC1c1ccc(C)cc1 (centres unmarked),1.72
5,CCN1CCC(N2CCN(CCO)CC2)CC1,3.68
6,CCOc1ccccc1C1C(C#N)=C(SCC(=O)NCc2ccccc2)N=C(C)/C1=C(/O)OC (centres unmarked),2.75
7,Cc1ccc(S(=O)(=O)c2nc(-c3cccs3)oc2NCCCN(C)C)cc1,-1.36
8,CCOC(=O)N1CCN(C(=O)C2CCN(c3ncnc4c3sc3cccc(F)c34)CC2)CC1,2.65
9,CCCNC(=O)C(CC)n1c2ccccc2c2cnnc(O)c21 (centres unmarked),-0.281
10,CCCCN(CCCC)S(=O)(=O)c1ccc2oc(C(=O)N3CCOCC3)c(C)c2c1,1.16
11,O=C(Cc1ccc(Br)cc1)NCc1ccccn1,-2.37
12,CSc1nc(N)nc(SCC(=O)NCc2ccccc2)c1C#N,6.74
13,O=C(c1ccc(N2C(=O)C3C4C=CC(C4)C3C2=O)cc1)N1CCCCC1 (centres unmarked),-4.65
14,COc1cc(OC)c2cc(C(=O)O)[nH]c2c1,0.883
15,Cn1c(=O)c2c(nc(SCC(=O)Nc3ccccc3)n2Cc2ccccc2Cl)n(C)c1=O,4.09
16,O=C(O)c1ccc(NCc2ccc(F)cc2)cc1,-3.43
17,Cc1cc(C)n(S(=O)(=O)c2cc(Cl)ccc2Cl)n1,5.7
18,CCOCCCn1c(S)nnc1-c1nn(C)cc1Cl,3.94
19,Cc1ccc(-n2nc(C)c(/C=N/c3nc4ccc(Cl)cc4s3)c2O)cc1,8.6
20,CNC(=S)NCc1ccc2c(c1)cc(C)n2C,-3.7
21,COc1ccc(C2C(C(=O)Nc3ccc(F)cc3)=C(C)Nc3nc(CCCO)nn32)cc1OC (centres unmarked),-10.2
22,CN(C)CCCN(CCCN(C)C)C1CC2CCC1C2 (centres unmarked),-1.5
23,Cc1ccc(C)c(OCCCCn2ccnc2)c1,-5.9
24,O=C(NCc1cccs1)C1CCCN(S(=O)(=O)c2ccc(Br)s2)C1 (centres unmarked),-1.92
25,NC(=O)C1CCN(Cc2ccccc2C(F)(F)F)CC1,-2.95
26,COc1cccc(C2C(C#N)=C(N)Oc3[nH]nc(-c4ccccn4)c32)c1 (centres unmarked),-4.43

row,Structure (SMILES),% Inhibition @ 10 uM [%]
1,COC(=O)c1ccc(Oc2ccc(C#N)cc2)cc1,-3.55
2,CCCC(C#N)NC(=O)[C@H](CC(C)C)NC(=O)OCc1ccccc1 (some centres unmarked),0.174
3,CCCn1c(NCc2ccc(OCC)cc2)nc2ccccc21,1.64
4,CN1CCN(S(=O)(=O)c2ccc(F)cc2)CC1,0.526
5,COc1ccc(OC)c(C2NC(=O)NC(C)=C2C(=O)OCCc2ccccc2)c1Br (centres unmarked),4.41
6,O=C(O)CCCCCN1C(=O)C(O)=C(C(=O)c2ccc(F)cc2)C1c1ccccc1F (centres unmarked),-5.63
7,CC(C)C(=O)Nc1ccc(Cc2ccc(NC(=O)C(C)C)c(O)c2)cc1O,-0.519
8,CNC(=O)c1ccc(-c2nc(CS(=O)(=O)c3ccc(C)cc3)c(C)o2)cc1,-6.11
9,CC(C)=C1C2C=CC1C1C(=O)N(CCO)C(=O)C21 (centres unmarked),1.4
10,CCOc1ccc2nc(N3CCCC(C(=O)NC4CCCCC4C)C3)sc2c1 (centres unmarked),4.95
11,C/N=C1/S/C(=C/c2c(O)ccc3ccccc23)C(=O)N1C,33.9
12,CCNC(=O)c1ccc2c(c1)c(C)c(C)n2Cc1ccccc1,3.78
13,O=C(NCc1cccnc1)c1cc(-c2ccc(Br)cc2)on1,-3.36
14,OC(CN1CCN(c2cccnc2)CC1)Cn1nnnc1-c1ccccc1 (centres unmarked),0.974
15,Cc1ccccc1NC(=O)c1ccc(N)cc1C(=O)O,-4.96
16,Cc1cccn2c(=O)c(/C=C3\SC(=S)NC3=O)c(NCc3ccco3)nc12,-1.33
17,COc1ccc(C(=O)Nc2ccc(C)cc2Br)cc1,-11
18,COc1ccc(C(=O)OCCNc2nc(-c3ccccc3)nc3ccccc23)cc1,-0.169
19,CC(=O)Nc1ccc(C(=O)Nc2ccc(S(N)(=O)=O)cc2)cc1,0.317
20,CC(C)OCCCn1c(SCC(=O)NC2CCCC2)nc2c(sc3ccccc32)c1=O,5.89
21,CC1=C(C#N)C(Nc2nccs2)(C(F)(F)F)C(=O)N1 (centres unmarked),-3.33
22,O=C(c1cc2nc(-c3ccco3)cc(C(F)(F)F)n2n1)N1CCc2ccccc2C1,-6.7
23,FC(F)(F)c1nnc2sc(-c3ccc4c(c3)OCCO4)nn12,0.635
24,CCOC(=O)c1cc(C)n(-c2ccc(C)c(C)c2)c1C,-1.75
25,O=C(O)Cn1ncc2c3ccccc3n(Cc3ccc(Cl)cc3)c2c1=O,4.79
26,COc1ccc(C2=NS(=O)(=O)N(C)C(C(=O)N(C)Cc3ccccc3)=C2)cc1,-2.84

row,Structure (SMILES),% Inhibition @ 10 uM [%]
1,N#Cc1ccccc1NC(=O)c1ccc(-c2ccccc2)cc1,-1.76
2,Cc1ccnc(NS(=O)(=O)c2ccc3ccccc3c2)n1,-4.06
3,COc1ccc(OCCCSC(C)C)cc1,-1.64
4,Cc1cc2oc3c(c(=O)c2cc1C)C(c1ccccc1F)N(c1nccs1)C3=O (centres unmarked),-3.13
5,COc1ccc(CCNc2nc(C)cc(C(F)(F)F)n2)cc1OC,1.23
6,O=C(NCc1ccc(Cl)cc1)c1ccc2nc(N3CCCCC3)sc2c1,4.22
7,Cc1cccc(/C=C2\SC(=O)N(c3ccccc3)C2=O)n1,-11.5
8,CN1CCN(C(=O)c2ccc(F)c(F)c2)CC1,2.18
9,CC1CCN(S(=O)(=O)c2ccc(NC(=O)c3ccc(Br)cc3)cc2)CC1,-9.26
10,CCCCN1C(=O)c2cccc3cccc(c23)C1=O,7.64
11,O=C(NCC1CCCO1)c1cc2nc(-c3ccco3)cc(C(F)(F)Cl)n2n1 (centres unmarked),8.93
12,Cc1ccccc1C(=O)Nc1ccccc1F,3.74
13,COc1ccc(Nc2cccc(C(F)(F)F)c2)c(C(=O)O)c1,3.81
14,O=C(Nc1ccc(S(=O)(=O)Nc2ccc(F)cc2)cc1)c1ccccc1Br,-5.44
15,Cc1ccc(S(=O)(=O)c2cnc3ccncc3c2O)cc1,1.02
16,Cc1cc(C)c(C)c(S(=O)(=O)NCc2ccc(C(=O)N3CCN(C)CC3)cc2)c1C,0.145
17,CC1=C(C#N)C(=O)N(CCO)C(=O)/C1=C\c1ccc(-c2ccccc2)o1,-1.26
18,CCN(CC)c1nc(Nc2ccc(C)cc2)nc(N(CC)CC)n1,-4.23
19,CC(C)c1ccc(CN(C(=O)c2cc(=O)c3cc(Cl)ccc3o2)C2CCS(=O)(=O)C2)cc1 (centres unmarked),5.06
20,CCc1ccc(-c2cn3ccsc3n2)cc1,-4.03
21,O=C(O)C1CCN(C(=O)c2ccc(Cl)cc2)CC1,-0.992
22,COc1ccc(C2=N/C(=C\C(Cl)=C\c3ccccc3)C(=O)O2)cc1Br,5.01
23,CCOC(=O)c1cnn(-c2ccccc2Cl)c1C1CCN(C(=O)OC(C)(C)C)CC1,3.96
24,O=C(Nc1ccc(F)c(F)c1)c1ccc(C(=O)Nc2ccc(F)c(F)c2)nc1,-5.69
25,CC1=CC2=NC(=O)/C(=C\c3ccc(Sc4ccc(Cl)cc4)o3)C(=N)N2O1,3.63
26,O=C(CCSc1nc2cc(Cl)ccc2o1)N1CCCC1,-3.45

row,Structure (SMILES),% Inhibition @ 10 uM [%]
1,O=C(O)C1C(=O)NCC1c1ccccc1 (centres unmarked),7.09
2,CCC(=O)Nc1ccc(N(CC)CC)cc1C,-2.65
3,CC1(C)CC(=O)c2c(nc(SC3C=CCCC3)c(C#N)c2-c2ccccc2)C1 (centres unmarked),-0.591
4,Cc1[nH]c2ccccc2c1C1=CCN(S(=O)(=O)c2cccc3nsnc23)CC1,-1.08
5,Cc1cc(C)c(C2C(C#N)=C(N)OC3=C2C(=O)CCC3)c(C)c1 (centres unmarked),23.3
6,COc1ccc(/C=C/C(=O)C2(O)CCCCC2)cc1OC,0.9
7,COc1ccc(Nc2cc(C)nc(Nc3ccc(OC)cc3)n2)cc1,-10.9
8,CC(C)c1ccc(NC(=O)c2cccc([N+](=O)[O-])c2)cc1,5.08
9,CCN1CCN(C2CCN(CCc3ccccc3)CC2)CC1,2.1
10,CCOC(=O)c1ccc(S(=O)(=O)N2CCC(C(N)=O)(N3CCCCC3)CC2)cc1,1
11,CCc1ccc(-c2nc(CSCC(=O)NCc3ccccc3)c(C)o2)cc1,3.99
12,COc1ccc(N(CC(=O)Nc2cc(C)cc(C)c2)S(C)(=O)=O)cc1OC,3.66
13,COc1ccc(C2C(C(=O)c3ccc(C)cc3)=C(O)C(=O)N2C)cc1 (centres unmarked),-0.171
14,Oc1ccc(Cl)cc1-c1cc(-c2ccccc2)[nH]n1,3.15
15,COc1ccc(-c2cc(C(=O)Nc3ccc(C(=O)N4CCOCC4)cc3)c3cc(C)ccc3n2)cc1,-7.09
16,CC(C)CCN(C)C1CCN(S(=O)(=O)c2ccc(C3CCCCC3)cc2)CC1,3.66
17,COCc1cc(C)nc(Cl)c1C#N,-6.87
18,CCN(CC)C(=O)Cn1c(=O)cc(C)c2c(C)nn(-c3cccc(F)c3)c21,3.99
19,CCc1ccccc1NC(=O)c1ccc(OC)cc1OC,-2.44
20,Cc1nn(C(C)C(=O)N2CCN(C(=O)c3ccco3)CC2)c(=O)c2c1sc1ccccc12 (centres unmarked),-1.17
21,Cc1nc(-n2cccc2)sc1C(=O)NC1CCN(Cc2ccccc2)CC1,1.03
22,CCCOc1c(Br)cc(/C=C2\SC(=O)NC2=O)cc1OCC,0.823
23,CCN1CCN(C(=O)c2cn(CC(C)C)c(=O)c3c2c2ccccc2n3C)CC1,-5.09
